Reference: the supplement of paper PMC3334620
Over roughly 33,000 sequences, “E-score (-0.5 to 0.5)” has its median near -0.056; the highest 2% begin near 0.38. The list shows a part of the results.

target: Stb4 (UniProt P50104); test: PBM E-score (8-mer binding enrichment) (E-score (-0.5 to 0.5)); higher = stronger / more preferred TF binding; most listed sequences are background and not binding sites; conditions: protein concentration: 200 nM; construct: GST-DNA-binding domain
In short: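 Detection of bound protein used fluorescent anti-GST, with scans normalised by masliner. The proteins were GST-tagged yeast transcription factors applied at about 100-200 nM to universal all-10-mer Agilent arrays made double-stranded by primer extension. Each ungapped eight-base word, pooled with its reverse complement, was scored with an E-score from the Universal PBM Analysis Suite.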

Sequence	PBM E-score
CACATCAA	-0.0888
AGAAGGAT	-0.306
CCTTGAAG	-0.197
ACCCCATA	0.167
CAACGGAC	0.0791
ATGGGCCC	0.0804
CTTCGTGC	-0.0909
AGGGCGTC	0.172
TCCCGACA	0.355
AAAGAATA	-0.263
GTCCTCTA	-0.27
AGACTTCA	-0.223
AATAAGAA	0.0781
ACGCCAGC	-0.254
TAGCCTCA	-0.198
GGCGACTA	-0.107
CTCAATCC	0.0397
CTCCCCTA	0.0813
ATTTTACA	-0.174
CGCTTGCA	-0.138
CGCCGCAG	-0.0602
AAAACACC	0.118
CTTCAGCC	-0.0696
ACGTAGCG	-0.15
ACGACAAA	0.129

Sequence	PBM E-score
AGCAGGCA	-0.196
TACCACAA	0.0502
TCCTAACA	-0.279
AGTCGATC	0.115
AATTGGTA	-0.124
GCTGTCTA	-0.0324
CGATTCAG	-0.0824
CCATTAGC	-0.194
CAAGGTCG	-0.0307
AAGAGTCT	-0.241
CACTGAAG	0.0166
CGGGCCTC	0.112
CGAGTTAA	0.161
CGTAATTA	-0.0276
CGTACGAC	-0.169
CAGATCAC	-0.15
GGAGTCGA	-0.0684
CGATGGAG	0.211
ACTGGGAT	-0.0522
CGGCAGGC	0.188
AGGCAAGG	-0.167
ACATATAC	-0.00625
ATGGACGG	0.161
CGGCGGGC	0.212
GGTAGTTA	0.127

Sequence	PBM E-score
ACGCTGGG	-0.236
GTGATTCA	-0.278
ACGACGCC	-0.172
ATGCGAGA	-0.117
CCGCTGCC	0.127
CAAATACC	0.00475
CAGTCCGC	-0.139
CACCGTGG	-0.249
GGCTGCGA	0.147
AGCTAAAG	-0.158
CATCAAAG	-0.21
ACTACGTG	-0.182
AAACCTTA	-0.124
AAACTATA	-0.0587
GAGATCTC	0.106
ATCCTGTA	-0.141
AGCAAATG	-0.266
GGCATTAC	0.139
TAGAGACA	-0.195
ATCGTGAG	-0.0289
CGCGTCAA	-0.137
AGCCAAAC	0.118
CGAATCTC	0.181
ATACTAAA	0.00699
CAATCGGG	0.265

Sequence	PBM E-score
CTGCGTCC	-0.195
GGCTTTAA	-0.0247
ATGGTGGC	-0.116
GAGTCATA	0.0498
ATATTTAC	0.0859
GGAACGGA	0.34
AAAAGTGA	-0.132
AGTAACAA	-0.0467
CGCCTACA	-0.273
CGCCTAGC	-0.0997
GCACGCAA	-0.0545
GGAATATA	0.269
CTACAGAG	-0.0698
TATGTAGA	-0.136
AGATGAGC	-0.238
CACGAGGA	-0.11
CCGAGCTA	0.424
CATGCAAG	-0.147
AATAAGCA	-0.213
GAACGAGC	0.0357
AGGGTCGC	0.0637
CCGGGCTC	0.147
ACGCCAAG	-0.162
AGTCTTGA	-0.157
AACTGGAC	-0.171

Sequence	PBM E-score
ACTGGGGA	-0.2
ATACGCAA	-0.238
CGATTCAC	0.0534
AAGAAGCG	-0.256
AGGACACG	0.223
AATTATCA	-0.136
CGCTGGAG	-0.175
CACGAACG	-0.0559
CTAACGTC	-0.0355
GAGTGACA	-0.0468
GAGGACTA	-0.151
ACCGCCTG	-0.115
ATCTACCA	-0.135
ATGCCTAA	-0.141
GCGGGAAC	0.24
GATGGTGA	-0.00467
CCCACCAC	0.0119
GACTGCGA	-0.135
AACCTCCA	-0.123
TCATTCGA	-0.206
TAGATAGA	-0.148
AAACCGGG	0.129
CCAACGCC	-0.0552
ATTGCAAC	0.0402
CAAGCTGG	-0.241

Sequence	PBM E-score
GCTGCTGA	-0.183
AGGTGCGA	-0.133
AGAAAGAA	-0.0401
CTGGAAGA	-0.112
ATTTTTCC	0.264
AACTGCGA	0.0202
AACCCCAG	-0.184
AACCCCCG	0.247
AAAGAACC	0.0688
AAAGGCCT	-0.268
GCAGCGTA	-0.154
AACTTTCA	-0.0247
CTGACCGA	0.107
GCTCTCCA	-0.362
CTAGTTCA	-0.107
AGGGATAG	-0.0761
AGATCGGC	0.189
CTTTTTGC	0.0383
AGATGTAG	-0.065
TACTGATA	0.137
AGTCACAC	-0.192
GCGCGTAA	-0.0365
ATTTAGAC	-0.0764
ACCGAACC	0.336
ATGCTAGA	-0.124

Sequence	PBM E-score
GGCGTATA	-0.128
AAGTTATA	-0.0816
ACGGAGAC	0.12
GCTAGCGA	-0.056
ACAAAGCG	-0.0861
GATTAACA	-0.0378
ATGGATGG	-0.177
CGGCTCGA	0.307
ATTACCGG	0.315
CATCCTGG	-0.211
TCTAGTAA	-0.126
ACAGCCGT	0.183
CGTAGGAA	-0.117
AGTTTCGA	-0.131
CCATTGGC	-0.0415
ATTAGCAG	-0.0138
TCGCGCCA	0.0181
ATTACTAC	-0.142
AGACCTGG	-0.104
TCATTAGA	-0.0953
ATGCTTTC	0.0626
ACGGACCG	0.215
GAACTTGA	0.0679
AAAAGAAG	-0.135
GGTATTTA	0.17

Sequence	PBM E-score
CTATAGAA	-0.123
GATGATCC	0.206
AGGTGGTG	-0.0694
CTAACCGC	0.0169
CCGGAGAG	0.253
ACTCGGGC	0.263
GTTGTCGA	-0.105
GATGCACA	-0.116
ATTTCCCC	0.07
AGCACATA	-0.0945
ATGATGTA	-0.135
ACCCGAGT	0.423
ATAAGAAA	-0.0559
ACTAACCG	0.291
TACCTACA	-0.101
AACTTTCC	0.236
ATCGTAGA	-0.167
TTATCGAA	-0.031
CTAACTCC	0.0117
CTTACGTA	-0.224
AACGAAAA	-0.251
AACGAGAA	-0.126
TAGTCGGA	0.405
CCCTTAAA	-0.219
CCCATATC	-0.035

Sequence	PBM E-score
ATTTCCAG	-0.129
GCTTCTAA	-0.186
CGCAACAA	-0.157
AAAACAAC	-0.191
ATTGCTTC	0.103
AAAATAAG	-0.152
CCTCCATC	-0.155
CAGGTTGA	-0.224
CACATAGG	-0.208
GCGCCTCA	0.0897
CGAACGCA	0.113
AACCGGCA	0.23
CCATGCAG	-0.267
ATCGCGGC	0.128
CACTCAAG	-0.372
ACATTTCT	0.061
AGGGCAAC	-0.0754
GCTTAGAA	-0.15
AATCCATC	-0.12
CTGTAGCA	-0.267
CTGGTTAC	-0.21
ATCTTAAT	-0.132
GGCTCGGA	0.466
CAAGCGAA	-0.201
TCGGCCCA	0.281

Sequence	PBM E-score
ATTTGGGG	-0.0633
CAAAGTTA	-0.0966
CCTTAGTC	-0.155
AGCAACTA	-0.0935
GAGGCGAC	-0.175
GGTAGGGA	-0.0824
AAGGCCGG	0.19
TCGTTACA	-0.149
AGAAACAC	-0.156
CCCGCTAC	0.0681
ACTTACAT	-0.117
GACGTCAC	-0.142
AAAAGGAT	-0.125
ACCATAAC	-0.0691
CCTCTGTC	-0.201
CACGTAAA	-0.213
GAGTTCCA	-0.0286
AGCGTGCC	0.107
CTCAGTAC	-0.0466
ACTGGCTA	-0.0919
CGTTTCTC	0.0825
CGCCCCAA	0.0104
GCTGTCCC	-0.0389
AGGAGTAG	-0.0742
AGATAGGA	-0.158

Sequence	PBM E-score
ACATCGAA	-0.132
AGGACCAA	-0.016
CCACCTAC	-0.246
CATAAAAG	-0.16
AACTCCAA	-0.255
CAACAAGA	-0.17
GGGCGGGA	0.286
AGCGTTTG	-0.162
CGGAGTGC	0.238
ACAGGGGT	-0.354
AGCAGCAA	-0.201
AGGATCGC	-0.129
CGAGTACA	0.113
GCAGGCAC	-0.175
ACGACCGT	-0.276
ACCAACAC	-0.239
CCGTCCAA	0.17
AGCTGCAC	0.0235
GACTCCAC	-0.156
ACTACCCT	-0.0381
ACCCTTAA	-0.064
CTAAGAAA	-0.0881
TCGGGCCA	0.3
AACTCACA	-0.139
CCAACCAC	-0.102

Sequence	PBM E-score
ACTCTTTG	-0.218
ACCCCAGC	-0.0907
CCCGACAG	0.26
ATTACGAA	-0.0192
ACGCAAAC	-0.297
TATTTTAA	-0.038
CCCATCAG	-0.253
CGGCATAG	0.22
CCCGTTAG	0.119
AGGCCGGC	0.153
ATATGAAT	-0.00726
ATGAACTA	-0.0663
GATGGTGC	-0.191
AGGTGCTA	-0.179
CCCAGCCA	-0.137
ATGTCTAG	0.0228
CCTCGGTA	0.38
ATACGTGA	-0.0367
CGCGTTAG	0.0223
ACCTATGC	-0.12
ACGTCTTC	-0.006
ATAGTACA	-0.102
CGGTGTAG	0.0483
ACTTGCGC	-0.0787
CCATTCTC	-0.0343

Sequence	PBM E-score
AGCTGCGC	-0.131
TAAATCTA	-0.0375
AGGGAAGG	-0.105
AAGCATCA	0.0126
ACCACTTC	0.0776
AACGCAAT	0.0798
TCTCAAGA	-0.148
AAGAGTAC	-0.0783
CCGCGCCC	0.151
AATAGAGC	-0.0923
GGCCCGGA	0.402
GTCTTGGA	-0.15
CGTATGGC	-0.15
GCTCCCGA	0.41
CGAGGTCA	0.0536
CAAAATCA	-0.00631
GAGCGCGA	0.0509
CACGGAAG	0.36
AACGTAGC	-0.189
ATGACTTA	-0.131
GCTGCTCC	0.0726
CGCTGTAC	0.0558
ACCCTTCT	-0.238
TCCGCTAA	0.167
CGCCGTCA	0.0103

Sequence	PBM E-score
ACATGGGC	-0.111
CTGGATTA	0.0706
TCGCTGCA	-0.0472
TTACACAA	-0.0835
CTGTAGAC	-0.147
CGCGCGCG	0.0877
ATACTCGA	-0.339
AAGACCGC	-0.116
ACCAACTA	-0.2
TCCGGAGA	0.335
CATCATCG	-0.0416
CCACCTAG	-0.0915
GCTGGGCA	-0.23
TAGGCAGA	-0.139
AGCGTGAA	-0.29
AGGTCCTC	-0.0727
ATTTACGA	-0.0261
GAGTGATC	-0.021
ATCTGACC	0.104
